Laboratory results: the supplement of paper PMC4604168 (melanoma cell lines)
The list shows a part of the results. Single values are uncertain, as repeats are few or missing.

Each molecule was assayed on A375 (assay: cell count relative to DMSO control; melanoma cells; higher = more viable cells). Settings: library dose: low library concentration; 72 h.
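Note: cell number obtained by counting DAPI-stained nuclei in high-throughput microscope images with image analysis software, screen run in 1,536-well plates.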

SMILES	cell count
Nc1cccc2c1CN(C1CCC(=O)NC1=O)C2=O (stereo not drawn) [lenalidomide] + COc1cc(N2CCC(N3CCN(C)CC3)CC2)ccc1Nc1ncc(Cl)c(Nc2ccccc2S(=O)(=O)C(C)C)n1 [NVP-TAE684] (first compound 1 µM, partner dose 0.08 µM)	106%
COCC[n+]1c2c(n(Cc3cnccn3)c1C)C(=O)c1ccccc1C2=O + Cc1cc([N+](=O)[O-])ccc1NS(=O)(=O)c1cc(Cl)ccc1Cl [FH535] (first compound 0.0004 µM, partner dose 1 µM)	91.1%
O=C(CCCCCCC(=O)Nc1ccccc1)NO [vorinostat] + COC(=O)c1sccc1S(=O)(=O)Nc1ccc(Nc2ccccc2)cc1OC [GSK0660] (first compound 0.08 µM, partner dose 1 µM)	116%
Nc1cccc2c1CN(C1CCC(=O)NC1=O)C2=O (stereo not drawn) [lenalidomide] + Cn1cc(/C=C2\C(=O)Nc3cccnc32)c2ccccc21 [GW441756] (first compound 1 µM, partner dose 0.4 µM)	84.6%
C#Cc1cccc(Nc2ncnc3cc(OCCOC)c(OCCOC)cc23)c1 [erlotinib] + COc1ccc2c(c1)CCC1C2CCC2(C)C(NCCCCCCN3C(=O)C=CC3=O)CCC12 [U73122] (first compound 0.8 µM, partner dose 0.4 µM)	76.1%
COCC[n+]1c2c(n(Cc3cnccn3)c1C)C(=O)c1ccccc1C2=O + O=C(O)C(=O)Nc1sc2c(c1C(=O)O)CCNC2 [TCS401] (first compound 0.0004 µM, partner dose 1.66667 µM)	65.1%
O=C(CCCCCCC(=O)Nc1ccccc1)NO [vorinostat] + O=S(=O)(c1ccccc1)N(CC(F)(F)F)c1ccc(C(O)(C(F)(F)F)C(F)(F)F)cc1 [T0901317] (first compound 0.08 µM, partner dose 1.4 µM)	97.7%
COCC[n+]1c2c(n(Cc3cnccn3)c1C)C(=O)c1ccccc1C2=O + O=C(Nc1ccccc1)c1cc([N+](=O)[O-])ccc1Cl [GW9662] (first compound 0.0004 µM, partner dose 2 µM)	81.2%
